{"source": "PubChem BioAssay AID290", "about": "(DTP/NCI, 2004)", "system": "mice, P1798 lymphosarcoma sc, survival or tumor weight T/C", "experiment": "NCI In Vivo Anticancer Drug Screen. Data for tumor model P1798 Lymphosarcoma (subcutaneous) in unknown mice", "details": "endpoint: mean tumor weight, higher = larger tumour", "method": "The antitumor activity of compounds was measured in mice bearing transplantable tumors. Survival or tumor size were measured and the results are expressed as the measurement made in the treated group (T) divided by the measurement made in the vehicle treated control group (C). The tumor model used in this assay is P1798 Lymphosarcoma (subcutaneous) in unknown mice", "note": "Records with an inconclusive call do not appear. Not every entry of the source has a single result; some have several. This list holds those alone. There may be further records. The records of an entry repeat one measurement across runs, samples, wells, individuals or studies. *1 amine or outer side, *2 acyl side, *3 side chain or, on linkers, in order; H or OH if unused. Where a SMILES comes first, the peptide text is derived from it. Bridges are numbered along the chain shown (N, C = ends). Roman numbers before positions name the chains, in order. [ ]: non-standard residue; d: D form. Actinocin(9to1) = Cc1c2oc3c(C)ccc(C(=O)[*:1])c3nc-2c(C(=O)[*:2])c(N)c1=O; aThr = C[C@H](O)[C@H](N)C(=O)O; NMeV = CN[C@H](C(=O)O)C(C)C; Sar = CNCC(=O)O"}
{"smiles": "Nc1nc2n[nH]nc2c(=O)[nH]1", "values": [{"measurement": "T/C", "setting": "dose: 25.0 mg/kg/injection, schedule: Q01DX010 (ip), vehicle: other", "value": "75 % of control and 164 % of control"}, {"measurement": "T/C", "setting": "dose: 100.0 mg/kg/injection, schedule: Q01DX010 (ip), vehicle: other", "value": "19 % of control, 72 % of control, 86 % of control"}]}
{"smiles": "O=C(Nc1ccc(C2=NCCN2)cc1)c1ccc(C(=O)Nc2ccc(C3=NCCN3)cc2)c(Cl)c1", "values": [{"measurement": "T/C", "setting": "dose: 3.5 mg/kg/injection, schedule: Q01DX011 (ip), vehicle: carboxymethylcellulose (CMC)", "value": "55 % of control, 71 % of control, 108 % of control"}, {"measurement": "T/C", "setting": "dose: 7.0 mg/kg/injection, schedule: Q01DX011 (ip), vehicle: carboxymethylcellulose (CMC)", "value": "53 % of control, 63 % of control, 82 % of control"}]}
{"smiles": "O=P1(N(CCCl)CCCl)NCCCO1", "note": "(stereo unspecified)", "values": [{"measurement": "T/C", "setting": "dose: 6.25 mg/kg/injection, schedule: Q01DX010 (ip), vehicle: saline", "value": "84 % of control and 112 % of control"}]}
{"smiles": "CC[C@]1(O)C[C@H]2CN(CCc3c([nH]c4ccccc34)[C@@](C(=O)OC)(c3cc4c(cc3OC)N(C=O)[C@H]3[C@@](O)(C(=O)OC)[C@H](OC(C)=O)[C@]5(CC)C=CCN6CC[C@]43[C@@H]65)C2)C1", "values": [{"measurement": "T/C", "setting": "dose: 62.0 micrograms/kg/injection, schedule: Q01DX010 (ip), vehicle: water", "value": "44 % of control and 92 % of control"}]}
{"smiles": "O=c1[nH]cc(F)c(=O)[nH]1", "values": [{"measurement": "T/C", "setting": "dose: 10.0 mg/kg/injection, schedule: Q01DX010 (ip), vehicle: saline", "value": "52 % of control and 95 % of control"}]}
{"smiles": "S=c1nc[nH]c2nc[nH]c12", "values": [{"measurement": "T/C", "setting": "dose: 18.3 mg/kg/injection, schedule: Q01DX010 (ip), vehicle: other", "value": "35 % of control, 61 % of control, 87 % of control"}]}
{"smiles": "CCOC(N)=O", "values": [{"measurement": "T/C", "setting": "dose: 500.0 mg/kg/injection, schedule: Q01DX010 (ip), vehicle: saline", "value": "48 % of control and 74 % of control"}]}
{"smiles": "Cc1c2oc3c(C)ccc(C(=O)N[C@@H]4C(=O)N[C@H](C(C)C)C(=O)N5CCC[C@H]5C(=O)N(C)CC(=O)N(C)[C@@H](C(C)C)C(=O)O[C@H]4C)c3nc-2c(C(=O)N[C@@H]2C(=O)N[C@H](C(C)C)C(=O)N3CCC[C@H]3C(=O)N(C)CC(=O)N(C)[C@@H](C(C)C)C(=O)O[C@H]2C)c(N)c1=O", "note": "(I: [aThr][dV]P[Sar][NMeV] / II: [aThr][dV]P[Sar][NMeV]; ester I:1-I:C, II:1-II:C; linker I:N-II:N via Actinocin(9to1))", "values": [{"measurement": "T/C", "setting": "dose: 10.0 micrograms/kg/injection, schedule: Q01DX010 (ip), vehicle: saline", "value": "44 % of control and 123 % of control"}]}
{"smiles": "C[C@]12CCC(=O)C=C1CC[C@@H]1[C@@H]2C(=O)C[C@@]2(C)[C@H]1CC[C@]2(O)C(=O)CO", "values": [{"measurement": "T/C", "setting": "dose: 25.0 mg/kg/injection, schedule: Q01DX010 (sc), vehicle: steriod suspending solution", "value": "42 % of control and 78 % of control"}, {"measurement": "T/C", "setting": "dose: 50.0 mg/kg/injection, schedule: Q01DX010 (sc), vehicle: steriod suspending solution", "value": "11 % of control and 69 % of control"}]}
{"smiles": "Oc1cc(CN(CCCl)CCCl)c(O)cc1CN(CCCl)CCCl", "values": [{"measurement": "T/C", "setting": "dose: 1.88 mg/kg/injection, schedule: Q01DX010 (sc), vehicle: steriod suspending solution", "value": "82 % of control and 124 % of control"}, {"measurement": "T/C", "setting": "dose: 3.75 mg/kg/injection, schedule: Q01DX010 (sc), vehicle: steriod suspending solution", "value": "50 % of control and 83 % of control"}, {"measurement": "T/C", "setting": "dose: 7.5 mg/kg/injection, schedule: Q01DX010 (sc), vehicle: steriod suspending solution", "value": "14 % of control and 48 % of control"}]}
{"smiles": "C[C@]12C=CC(=O)C=C1CC[C@@H]1[C@@H]2C(=O)C[C@@]2(C)[C@H]1CC[C@]2(O)C(=O)CO", "values": [{"measurement": "T/C", "setting": "dose: 40.0 mg/kg/injection, schedule: Q01DX010 (sc), vehicle: steriod suspending solution", "value": "21 % of control and 49 % of control"}]}
